Measurements taken from PubChem BioAssay AID493208 (National Center for Advancing Translational Sciences (NCATS), 2011).
Out of some 44,000 compounds screened, about 340 (0.77%) were called active. Not shown: some 5% with an inconclusive outcome. The call rests on the fitted dose curve; in most records, active means well fitted inhibition curve with a large enough effect; inconclusive means small, poorly fitted or top-dose-only effect; inactive means flat fitted curve, though single readings scatter. The list shows a part of the results.

Assay: Acumen qHTS Assay for Inhibitors of the mTORC1 Signaling Pathway in MEF (Tsc2-/-, p53-/-) Cells: Sytravon; further: nearly all actives have a fitted effect of over 50% in size;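 on activity change, negative = inhibition: plate controls were DMSO for no effect and rapamycin for full effect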
Conditions: phospho-rpS6 immunofluorescence/PI, 24 h; series mostly up to 38.3 µM; activity change, negative = inhibition: at the top concentration
How it was run: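 Compounds act on Tsc2-/-, p53-/- fibroblasts carrying an empty vector for 24 h before fixation and dual staining for phospho-S6 and DNA (propidium iodide). Values are percentages of cells above a rapamycin-defined pS6/PI threshold.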
Potency means the concentration at half of the fitted maximal effect.

Activity change, negative = inhibition, inactive:
CCNC(=O)c1cnc2sc(N3CCC(C)CC3)nn2c1=O 0.913%, Cc1c(C(=O)N2CCCC2)oc2c1-c1nn(CC(=O)NCc3cccc(F)c3)cc1CC2 2.14%, Cc1ccc2c(c1)N(C(=O)N1CCC(C(=O)NCCC3=CCCCC3)CC1)CC(C)O2 (stereo unspecified) 5.53%, O=C(CCc1nc2cccnc2n1Cc1ccccc1)NCc1cccc(Cl)c1 3.19%, Cc1ccccc1Nc1ncnc2c1c(-c1ccccc1)cn2-c1ccc(F)cc1 6.1%, O=C(Nc1cccc(Cl)c1)c1ccc2nc(Cc3ccccc3)oc2c1 4.53%, OCc1cnc(SCc2cccc(F)c2)n1Cc1ccc(F)cc1 -9.37%, CCCCn1c(CNC(=O)C23CC4CC(CC(C4)C2)C3)nnc1SCC(=O)Nc1ccccc1 -12.7%, CCN(CC)CCCNC(=O)CCc1c(C)n(CC)c2cc(-c3ccccc3OC)nn2c1=O -0.0678%, CCOc1ccc(CCNc2ncnc3onc(-c4ccc(F)cc4)c23)cc1OCC -1.13%, COC(=O)NNC(=O)C1CCC(C)CC1 (stereo unspecified) 4.02%, CN1c2ccc(Cl)cc2-c2nc(SCC(=O)Nc3cc(F)ccc3F)ncc2S1(=O)=O -3.18%, Cc1cccc(N2C(=O)CS(=O)(=O)C23C(=O)N(C)c2ccccc23)c1 (stereo unspecified) 2.68%, CCc1nc2ccc(C(=O)NCCc3ccc(OC)c(OC)c3)cc2nc1CC -2.92%, CCOc1ccccc1CNC(=O)c1[nH]c2ccccc2c1Sc1ccccc1 -6.57%, O=C(c1ccco1)N1CCN(c2nc3ccc(Cl)cc3s2)CC1 -4.55%, CCn1ccc2cc(S(=O)(=O)N3CCC(C(=O)NCCOC)CC3)ccc21 1.13%, O=S(=O)(c1ccc(-c2cc(C(F)(F)F)on2)s1)N1CCN(c2cccc(Cl)c2)CC1 -8.02%, Cc1nn2c(C(F)(F)F)cc(-c3ccc(OC(C)C)cc3)nc2c1C#N -0.228%, Cc1ccccc1OCC(=O)Nc1ccccc1C(=O)OCc1cc(=O)n2c(C)csc2n1 7.34%, COCCn1c(C)cc(O)c(C(c2ccccc2OC)N2CCCCC2)c1=O (stereo unspecified) 5.21%, COc1ccc(OC)c(CCNC(=O)c2ccc3[nH]c(C)c(C)c3c2)c1 -4.15%, COc1ccc(C(CC(=O)Nc2ccc(OC)c(OC)c2)N2Cc3ccccc3C2=O)cc1 (stereo unspecified) 1.2%, Cc1ccc(C)c(N2CCN(C(=O)c3cccn3-c3nnc(N4CCCCC4)s3)CC2)c1 -11.7%, COc1cccc(CNC(=O)c2cc3c(=O)n(C)c4ccccc4c3n2C)c1 2.13%, Cc1ccc2nc(SCc3nc(-c4ccccc4C)no3)[nH]c2c1 4.4%, Cc1ccc2c(CC(=O)Nc3c(C(=O)Nc4cccc(Cl)c4)oc4ccccc34)coc2c1C -1.78%, CCCCN(CC)CCNC(=O)Cn1c(=O)c2cccn2c2cccnc21 -6.66%, Cc1ccc(NC(=O)Cn2c(=O)c(C(F)(F)F)nc3ccccc32)c(C)c1 6.83%, Cc1ccc(N2CCN(C(=O)C3CCC(CNS(=O)(=O)c4ccc(Br)s4)CC3)CC2C)cc1 (stereo unspecified) -10.3%, Cc1ccc(Nc2cc(C(=O)NC3CCCC3)c3ccccc3n2)c(C)c1 -4.58%, CN(Cc1ccccc1)C(=O)Cn1ncc2c3ccccc3n(Cc3cccc(Cl)c3)c2c1=O -3.98%, COc1ccc(NC(=O)CSC2=Nc3ccccc3C3=NC(Cc4ccccc4)C(=O)N23)cc1Cl (stereo unspecified) 4.36%, Cc1ccc(Cl)cc1Nc1sc(C(=O)c2ccccc2)c(N)c1S(=O)(=O)c1ccccc1 5.33%, CC(C)(C)c1ccc(C(=O)N2CC(=O)Nc3ccc(F)cc3C2c2ccc(F)cc2)cc1 (stereo unspecified) 0%, Cc1cc(C)c2oc(-c3cccc(NC(=O)c4cc5ccccc5o4)c3)nc2c1 -3.68%, COc1cc(CCC(=O)NCc2ccc3c(c2)CCN3C(=O)c2cccc(C)c2)cc(OC)c1OC -14.9%, COc1cc(C2c3c(oc4ccccc4c3=O)C(=O)N2Cc2ccccc2Cl)ccc1O (stereo unspecified) 2.58%, Cc1ccnc(NS(=O)(=O)c2cc(-c3cc(C)no3)ccc2C)c1 -6.12%, Cc1ccc(-n2ncc(C(=O)Nc3ccc4c(c3)OCO4)c2C2CCN(C(=O)OC(C)(C)C)CC2)cc1 -9.36%, Cc1nc2scc(C)n2c(=O)c1S(=O)(=O)Nc1ccc(N2CCOCC2)cc1 -4.73%, CCc1ccc(N(CC)C(=O)Cn2c(=O)oc3ccccc32)cc1 -8.13%, Cc1nn(S(=O)(=O)c2ccc(F)cc2)c(C)c1S(=O)(=O)N1CCC(C)CC1 -2.31%, COc1ccc(NC(=O)C2CCCN(S(=O)(=O)c3ccc4c(c3)CCCC(=O)N4)C2)c(OC)c1 (stereo unspecified) 6.98%, COc1cccc2cc(C(=O)NCCc3c(C)[nH]c4ccc(Br)cc34)c(=O)oc12 -29.3%, Cc1ccc(S(=O)(=O)c2cn(Cc3ccc(F)cc3)c3cc(F)c(F)cc3c2=O)cc1 -1.27%, CCOC(=O)c1cc2c(=O)n3ccccc3nc2n(CC(C)C)c1=NC(=O)c1cc2ccccc2o1 14.9%, CC(=O)c1cccc(NC(=O)CCS(=O)(=O)c2ccc(Br)s2)c1 -4.33%, CCOCCn1ccc2c(OCC(=O)Nc3ccc(OC(F)(F)F)cc3)cccc2c1=O 2.08%, O=C(CN1C(=O)CC(c2ccccc2)Sc2ccccc21)Nc1cccc(Cl)c1 (stereo unspecified) -13.5%, CC(C)(C)NC(=O)c1cnn2c(C(F)F)cc(-c3ccccc3)nc12 -4%, COc1ccc(/C=C/C(=O)Nc2nc3n(n2)C(c2ccccc2)C=C(c2ccccc2)N3)cc1 (stereo unspecified) -13.4%, CCN(C(=O)Cn1c(=O)oc2cc(Cl)ccc21)c1cccc(C(F)(F)F)c1 -1.91%, Cc1ccc(CCNC(=O)C2CCN(c3nnc(-n4cccc4CNc4ccc(C)cc4)s3)CC2)cc1 2.34%, COCCCNC(=O)c1cc(-c2cccnc2)nc2ccc(S(=O)(=O)N3CCC(C)CC3)cc12 0.654%, CN1C(=O)C2(c3ccccc31)N(c1cccc(F)c1)C(=O)CS2(=O)=O (stereo unspecified) -1.07%, COc1ccc(Cl)cc1NC(=O)c1c(NCc2sccc2C)sc2c1CCCC2 -1.61%, Clc1ccccc1CNc1nc2ccccc2c2nc(-c3cccnc3)nn12 -0.0869%, O=C(NCc1ccccc1Cl)c1cnc2sc(N3CCCCC3)nn2c1=O 4.11%, COc1ccc(OC)c(CNS(=O)(=O)c2c(C(=O)N3CCCCCC3)c(C)n(C)c2C)c1 -9.38%

Potency, active:
COc1ccc2cc(CNc3ccccc3)c(=O)n(CC(=O)Nc3ccc(C)cc3C)c2c1 7.36 µM
